In publication PMC4336329 (PLoS ONE, 2015):
Among all 310,000 compounds or so, about 2,200 (0.71%) showed an effect of 50% or more. Effects have a minus sign here. The list shows a part of the results.

target: human ether-à-go-go-related gene (hERG) potassium channel (human, UniProt Q12809); assay: primary screen, population patch clamp on CHO cells stably expressing hERG
Experimental: Briefly, Chinese hamster ovary (CHO) cells stably expressing the hERG channel were dislodged from tissue culture flasks and dispensed into PPC plates. […] During the recording, background leak currents were estimated by a 100 ms step to -80 mV from an initial holding potential of -70 mV and subtracted from the subsequent current measurement. The campaign was conducted in two phases using slight differences in recording protocol. In the first phase, the initial voltage pulse used a 100 ms step to -30 mV from a holding potential of -70 mV, a 2 s conditioning step to +25 mV, and a 2 s test step to -30 mV. During the second phase of the screen, the potential during the conditioning step was raised to +45 mV. In both phases of the campaign, a secondary voltage pulse was applied using the same parameters as the second phase initial pulse. The initial and secondary pulses were applied in the absence of compound, and upon application of 1 μM and 10 μM test concentrations. Small molecule effects on hERG current density were quantified by […].

Sequence of human ether-à-go-go-related gene (hERG) potassium channel (Q12809 whole entry, looked up): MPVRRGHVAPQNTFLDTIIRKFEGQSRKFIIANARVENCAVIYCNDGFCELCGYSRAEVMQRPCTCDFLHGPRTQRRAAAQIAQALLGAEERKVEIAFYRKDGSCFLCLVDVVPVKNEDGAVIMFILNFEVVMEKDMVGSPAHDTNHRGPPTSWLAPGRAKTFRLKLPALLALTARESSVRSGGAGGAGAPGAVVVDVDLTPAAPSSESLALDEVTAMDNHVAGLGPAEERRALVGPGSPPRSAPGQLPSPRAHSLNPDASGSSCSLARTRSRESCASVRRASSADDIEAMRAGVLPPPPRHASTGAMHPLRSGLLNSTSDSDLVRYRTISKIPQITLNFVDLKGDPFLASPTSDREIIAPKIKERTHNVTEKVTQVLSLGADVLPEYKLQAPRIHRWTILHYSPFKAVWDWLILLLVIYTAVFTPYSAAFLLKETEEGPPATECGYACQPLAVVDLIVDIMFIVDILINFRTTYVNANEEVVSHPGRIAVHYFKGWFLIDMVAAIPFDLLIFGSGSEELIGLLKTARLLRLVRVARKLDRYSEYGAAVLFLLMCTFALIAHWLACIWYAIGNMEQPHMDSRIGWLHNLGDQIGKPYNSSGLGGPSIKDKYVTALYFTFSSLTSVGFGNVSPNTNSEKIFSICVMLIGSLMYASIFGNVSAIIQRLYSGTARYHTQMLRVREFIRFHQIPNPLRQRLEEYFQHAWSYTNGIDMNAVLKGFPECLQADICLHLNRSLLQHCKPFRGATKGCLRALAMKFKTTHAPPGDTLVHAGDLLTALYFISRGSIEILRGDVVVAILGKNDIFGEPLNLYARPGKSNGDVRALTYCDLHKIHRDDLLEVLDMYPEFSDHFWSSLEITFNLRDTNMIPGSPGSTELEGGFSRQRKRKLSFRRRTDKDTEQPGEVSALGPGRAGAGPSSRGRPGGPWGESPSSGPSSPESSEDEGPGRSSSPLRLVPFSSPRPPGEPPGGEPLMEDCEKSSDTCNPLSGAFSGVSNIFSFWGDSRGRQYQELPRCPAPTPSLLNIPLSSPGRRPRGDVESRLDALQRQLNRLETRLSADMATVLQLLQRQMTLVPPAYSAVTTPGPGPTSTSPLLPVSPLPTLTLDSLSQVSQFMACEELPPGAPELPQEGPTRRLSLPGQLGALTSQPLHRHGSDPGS

SMILES | hERG current change (%, negative = inhibition) at 1uM
O=C(CNC(=O)c1ccccc1)NCC(=O)OCC(=O)c1ccc(F)cc1 | 4.44%
CCOc1ccc(OCC)c(NC(=O)CCNS(=O)(=O)c2cc(Br)cnc2N)c1 | 7.76%
COc1cccc(OC)c1C(=O)NCCN1CCN(C(=O)c2c(OC)cccc2OC)CC1 | 16.7%
CC1CCN(C(=S)NC(=O)c2ccccc2)CC1 | -6.35%
CCNc1nc(Cl)nc(N(NC(C)=O)C(C)C)n1 | 16.7%
CCCN(CCC)C(=O)CSc1nc2n[nH]c(C)c2c(=N)n1-c1ccc(OC)cc1 | 1.56%
COc1ccc(C2c3c(oc4ccccc4c3=O)C(=O)N2Cc2ccncc2)cc1OC (stereo not shown) | 5.97%
Cc1ccc(S(=O)(=O)NCc2ccccc2)cc1C(=O)N1CCN(c2ccccc2)CC1 | -2%
COc1ccc(C2=CC(=O)CC(c3ccc(OC)cc3)C2)cc1 (stereo not shown) | 9.13%
COc1ccc(Cc2nnc(NC(=O)c3ccccc3C)s2)cc1 | 7.37%
CC(C)Oc1ccc(CNC(=O)CC(c2ccccc2)c2cc(Cl)ccc2O)cc1 (stereo not shown) | 12.4%
CCNCCNC(=O)c1c(O)c2cccc3c2n(c1=O)CCC3.Cl | -1.5%
Cc1cccc(/C(N)=N/OC(=O)c2ccc(Br)o2)c1 | 9.79%
Cc1ccccc1NC(=O)CC1C(=O)Nc2ccccc2N1CC(=O)N(C)C1CCS(=O)(=O)C1 (stereo not shown) | 11.6%
O=C(NCc1ccccc1)c1onc(CSc2nc3ccccc3[nH]2)c1C(=O)NCc1ccccc1 | 16.2%
C/C(=N\NC(=O)C(O)c1ccccc1)c1cccnc1 (stereo not shown) | 16%
O=C(O)c1cccc(N2C(=O)c3cccc4cccc(c34)C2=O)c1 | 10.6%
CCOc1ccccc1N(CC(=O)NC1CCCC1)C(=O)CCCC(=O)Nc1ccccn1 | 7.65%
Cc1cc(C)n(C(=O)c2ccc(C)c(S(=O)(=O)N3CCCC3)c2)n1 | 14.4%
O=C(Nc1ccc(C(=O)Nc2ccccc2Cl)cc1)c1cccnc1 | 8.84%
Cc1cc([N+](=O)[O-])ccc1NC(=O)CSc1nncn1-c1cccnc1 | 0.276%
CC(C)CNC(=O)c1ccccc1NC(=O)c1ccc(CSc2ccccc2)cc1 | 3.65%

SMILES | hERG current change (%, negative = inhibition) at 1uM
Cc1nnc(-c2cnn(C)c2N)n1Cc1ccccc1F | 16.3%
CN(C)c1nc(Nc2ccc(Cl)c(Cl)c2)nc(N(C)C)n1 | 8.79%
Cc1cc(C)c(C)c(S(=O)(=O)Nc2cccnc2)c1C | 9.46%
CCCC1CCC(C(=O)Nn2cnc3ccccc3c2=O)CC1 (stereo not shown) | 3.38%
O=C(COc1ccccc1Br)NC1CC1 | 4.04%
Cc1cc(Cl)ccc1C(=O)C1CCCN(C(=O)c2n[nH]c3c2CCCC3)C1 (stereo not shown) | 13%
CCOC(=O)c1[nH]c2cc3c(cc2c1NC(=O)CN1CCN(CCO)CC1)OCO3 | -0.67%
COc1ccc(OC)c(Nc2nc(N)nc(CSc3nnc(N)s3)n2)c1 | 1.4%
O=C(N/N=C/c1cccs1)C(O)c1ccccc1 (stereo not shown) | 14.4%
CCN(CC)c1cccc(OCC(=O)N2c3ccccc3CC2C)c1 (stereo not shown) | -1.79%
CNNCc1ccc(C(=O)NC(C)C)cc1.Cl | 13.3%
Cc1onc(-c2ccccc2)c1C(=O)NC(CC(=O)O)c1ccc(OC(C)C)cc1 (stereo not shown) | 9.91%
O=C(c1ccc(OC2CCN(CCc3ccccc3)CC2)cc1)N1CCCC(CCCO)C1 (stereo not shown) | 9.15%
COc1ccccc1OCC(=O)Nc1cc2c(cc1C(=O)O)OCCCO2 | 11.9%
CCN(c1cccc(C)c1)S(=O)(=O)c1ccc2c(c1)N(C(C)=O)CCS2 | 2.7%
COc1ccc(N2CCN(C(=O)Cc3cccs3)CC2)cc1 | 13.8%
COc1ccccc1NC(=O)C1=C(C)N(c2ccccc2)C(=S)NC1c1cccc(C(F)(F)F)c1 (stereo not shown) | 1.92%
S=C(Nc1cccc(Cl)c1)NC1CC2CCCC(C1)N2C1CCCC1 (stereo not shown) | 17.4%
COc1ccccc1NS(=O)(=O)c1cc2c3c(c1)CCN3C(=O)CC2 | 9.25%
Cc1ccc(/C=N/NC(=O)CCSc2ccccc2)cc1 | 8.25%
CC(C)[C@H](NC(=O)c1ccc(F)cc1)C(=O)OCC(=O)NC(=O)c1cccn1C | -6.57%
COc1ccc(S(=O)(=O)Nc2nc3ccccc3s2)cc1OC | 8.18%

SMILES | hERG current change (%, negative = inhibition) at 1uM
Cc1cc(C(F)(F)F)nn1CC(=O)NNC(=S)Nc1cccc(Cl)c1 | 13.6%
O=[N+]([O-])c1cc(Cl)ccc1Sc1cccc2cccnc12 | 12.2%
O=C(COc1ccccc1[N+](=O)[O-])NCCC1=CCCCC1 | 12%
Cc1cc2n(n1)C(c1ccsc1)Nc1ccccc1-2 (stereo not shown) | -10.9%
CCN(CC)c1nc2cc(OC)ccc2cc1C#N | 6.59%
COc1ccc(S(=O)(=O)N2CC(=O)Nc3ccccc32)cc1Cl | 14.5%
COc1ccc(C=O)cc1OS(=O)(=O)c1ccccc1[N+](=O)[O-] | 9.7%
C=CCn1c(SCC(=O)Nc2ccc(NC(C)=O)cc2)nc2sc(C)c(C)c2c1=O | 10.6%
CCOC(=O)c1ccccc1NC(=O)Cn1cnc2c(cnn2-c2ccccc2)c1=O | -2.5%
COc1ccc(C)cc1S(=O)(=O)Nc1cccc(SC)c1 | 4.83%
CC(CC(=O)Nc1ccc(F)cc1)S(=O)(=O)c1ccc2c(c1)NC(=O)CO2 (stereo not shown) | 13.4%
Cn1cc(C(=O)NCCO)c(=O)c2ccccc21 | 3.93%
O=C(O)c1ccc(COc2ccccc2C=C2C(=O)c3ccccc3C2=O)cc1 | 12.8%
CCOc1ccc(N(C(C)C(=O)N2CCOCC2)S(C)(=O)=O)cc1 (stereo not shown) | 10.8%
COc1cccc(C2C(C#N)=C(N)Oc3cc(C)n(Cc4ccccn4)c(=O)c32)c1OC (stereo not shown) | -1.52%
Cc1ccc(CNC(=O)c2nc3nc(C)cc(C)n3n2)cc1 | 20.5%
CCOC(=O)c1c(NC(=O)CSc2nnc(Cc3csc(N)n3)n2C)sc(C)c1C | 9.13%
O=S(=O)(c1ccc(Cl)cc1)N(Cc1ccccn1)Cc1ccccn1 | 8.39%
COc1ccc(/C=N/NC(=O)c2ccc(Cl)cc2)cc1Cn1cc(Cl)cn1 | 12%
Cc1nc(C)c(C(=O)Nc2cccc(F)c2)s1 | 13.9%
O=C(CN1C(=O)C2CC=CCC2C1=O)NC1CCCCC1 (stereo not shown) | 15.9%
CCCCc1ccc(NC(=O)CSc2nnc(C)c(=O)n2N)cc1 | 7.02%

SMILES | hERG current change (%, negative = inhibition) at 1uM
O=C(NC(NCc1ccccc1)C(Cl)(Cl)Cl)c1cccnc1 (stereo not shown) | 12.2%
CC(=O)N1CCC(C(=O)NC2CC(C)(C)Cc3c2cnn3-c2ccc(F)cc2)CC1 (stereo not shown) | -11.3%
O=C(c1ccc(N2CC3CC(C2)c2cccc(=O)n2C3)c([N+](=O)[O-])c1)N1CCCCC1 (stereo not shown) | -8.5%
CN(Cc1ccc(F)cc1)C(=O)c1cccc(S(=O)(=O)N2CCN(Cc3ccccc3)CC2)c1 | 5.98%
COc1cccc(-n2nnnc2SCC(=O)N2CCCc3ccccc32)c1 | 12.1%
NS(=O)(=O)c1ccc(CCNc2ncnc3c2c(-c2ccccc2)cn3-c2ccc(F)cc2)cc1 | 14.4%
CN(C)C(=O)c1ccc(NC(=O)COC(=O)CC23CC4CC(CC(Br)(C4)C2)C3)cc1 | 6.61%
CCC1(C(=O)c2ccc(Cl)cc2)C2c3ccccc3OC(=O)C21C(=O)Nc1ccccc1 (stereo not shown) | 5.58%
O=C(Cn1nnc(-c2ccccc2)n1)N/N=C/c1cccc([N+](=O)[O-])c1 | 2.73%
N#C/C(=C\c1ccc(-c2ccc([N+](=O)[O-])cc2)o1)C(=O)Nc1nc(-c2cccs2)cs1 | 9.95%
Nc1nc(Cl)cc(Sc2ccc(F)cc2)n1 | 5.47%
COc1ccc(CCNc2ccc(N3C(=O)CC(C)C3=O)cc2[N+](=O)[O-])cc1 (stereo not shown) | 10.5%
Cn1cnnc1SCC(=O)n1c2ccccc2c2ccccc21 | 14%
c1ccc(-c2ccc(-n3ccnc3)cc2)cc1 | 4.72%
CCn1c(CNc2ccc(Cl)cc2)nnc1SCC#N | 13.6%
CCCCn1c(C)c(C(=O)O)c2cc(OC)ccc21 | 7.97%
COc1ccccc1N=Nc1c(C)noc1C | 6.79%
CC(=O)Nc1ccc(SCC(=O)c2cc(C)n(CC(F)(F)F)c2C)cc1 | 12.2%
C/C(N)=C(/C#N)C(=O)CSc1nnc(Nc2cccc(C)c2C)s1 | 9.7%
COc1ccc(S(=O)(=O)N(Cc2cc3ccc(OC)cc3[nH]c2=O)CC2COCCO2)cc1 (stereo not shown) | -13.9%
COc1ccc(OC)c(S(=O)(=O)NC2CC(=O)N(c3cccc(F)c3)C2)c1 (stereo not shown) | 8.91%
CNC(=O)C(=O)Nc1ccc2c(c1)N(S(=O)(=O)c1cccs1)CCC2 | -4.69%
